# Test results: the supplement of paper PMC12423691
# The other results are listed elsewhere or left out. Binding of human transcription factors and regulators to the viral nucleoprotein by AlphaScreen, crude cell-free proteins, amounts not normalised, one pass. Fold of the Venus control; higher = more signal. No active / inactive call. Single-pass screen; sequences are the whole Swiss-Prot entries looked up by name.
# B1: ARID4A, P29374 (protein)
# chain: MKAADEPAYLTVGTDVSAKYRGAFCEAKIKTVKRLVKVKVLLKQDNTTQLVQDDQVKGPLRVGAIVETRTSDGSFQEAIISKLTDASWYTVVFDDGDERTLRRTSLCLKGERHFAESETLDQLPLTNPEHFGTPVIAKKTNRGRRSSLPVTEDEKEEESSEEEDEDKRRLNDELLGKVVSVVSATERTEWYPALVISPSCNDDITVKKDQCLVRSFIDSKFYSIARKDIKEVDILNLPESELSTKPGLQKASIFLKTRVVPDNWKMDISEILESSSSDDEDGPAEENDEEKEKEAKKTEEEVPEEELDPEERDNFLQQLYKFMEDRGTPINKPPVLGYKDLNLFKLFRLVYHQGGCDNIDSGAVWKQIYMDLGIPILNSAASYNVKTAYRKYLYGFEEYCRSANIQFRTVHHHEPKVKEEKKDLEESMEEALKLDQEMPLTEVKSEPEENIDSNSESEREEIELKSPRGRRRIARDVNSIKKEIEEEKTEDKLKDNDTENKDVDDDYETAEKKENELLLGRKNTPKQKEKKIKKQEDSDKDSDEEEEKSQEREETESKCDSEGEEDEEDMEPCLTGTKVKVKYGRGKTQKIYEASIKSTEIDDGEVLYLVHYYGWNVRYDEWVKADRIIWPLDKGGPKKKQKKKAKNKEDSEKDEKRDEERQKSKRGRPPLKSTLSSNMPYGLSKTANSEGKSDSCSSDSETEDALEKNLINEELSLKDELEKNENLNDDKLDEENPKISAHILKENDRTQMQPLETLKLEVGENEQIVQIFGNKMEKTEEVKKEAEKSPKGKGRRSKTKDLSLEIIKISSFGQNEAGSEPHIEAHSLELSSLDNKNFSSATEDEIDQCVKEKKLKRKILGQSSPEKKIRIENGMEMTNTVSQERTSDCIGSEGMKNLNFEQHFERENEGMPSLIAESNQCIQQLTSERFDSPAEETVNIPLKEDEDAMPLIGPETLVCHEVDLDDLDEKDKTSIEDVAVESSESNSLVSIPPALPPVVQHNFSVASPLTLSQDESRSVKSESDITIEVDSIAEESQEGLCERESANGFETNVASGTCSIIVQERESREKGQKRPSDGNSGLMAKKQKRTPKRTSAAAKNEKNGTGQSSDSEDLPVLDNSSKCTPVKHLNVSKPQKLARSPARISPHIKDGEKDKHREKHPNSSPRTYKWSFQLNELDNMNSTERISFLQEKLQEIRKYYMSLKSEVATIDRRRKRLKKKDREVSHAGASMSSASSDTGMSPSSSSPPQNVLAVECR
# B2: MYRF, Q9Y2G1 (protein)
# chain: MEVVDETEALQRFFEGHDINGALEPSNIDTSILEEYISKEDASDLCFPDISAPASSASYSHGQPAMPGSSGVHHLSPPGGGPSPGRHGPLPPPGYGTPLNCNNNNGMGAAPKPFPGGTGPPIKAEPKAPYAPGTLPDSPPDSGSEAYSPQQVNEPHLLRTITPETLCHVGVPSRLEHPPPPPAHLPGPPPPPPPPPHYPVLQRDLYMKAEPPIPHYAAMGQGLVPTDLHHTQQSQMLHQLLQQHGAELPTHPSKKRKHSESPPSTLNAQMLNGMIKQEPGTVTALPLHPTRAPSPPWPPQGPLSPGPGSLPLSIARVQTPPWHPPGAPSPGLLQDSDSLSGSYLDPNYQSIKWQPHQQNKWATLYDANYKELPMLTYRVDADKGFNFSVGDDAFVCQKKNHFQVTVYIGMLGEPKYVKTPEGLKPLDCFYLKLHGVKLEALNQSINIEQSQSDRSKRPFNPVTVNLPPEQVTKVTVGRLHFSETTANNMRKKGKPNPDQRYFMLVVALQAHAQNQNYTLAAQISERIIVRASNPGQFESDSDVLWQRAQVPDTVFHHGRVGINTDRPDEALVVHGNVKVMGSLMHPSDLRAKEHVQEVDTTEQLKRISRMRLVHYRYKPEFAASAGIEATAPETGVIAQEVKEILPEAVKDTGDMVFANGKTIENFLVVNKERIFMENVGAVKELCKLTDNLETRIDELERWSHKLAKLRRLDSLKSTGSSGAFSHAGSQFSRAGSVPHKKRPPKVASKSSSVVPDQACISQRFLQGTIIALVVVMAFSVVSMSTLYVLSLRTEEDLVDTDGSFAVSTSCLLALLRPQPPGGSEALCPWSSQSFGTTQLRQSPLTTGLPGIQPSLLLVTTSLTSSAPGSAVRTLDMCSSHPCPVICCSSPTTNPTTGPSLGPSFNPGHVLSPSPSPSTNRSGPSQMALLPVTNIRAKSWGLSVNGIGHSKHHKSLEPLASPAVPFPGGQGKAKNSPSLGFHGRARRGALQSSVGPAEPTWAQGQSASLLAEPVPSLTSIQVLENSMSITSQYCAPGDACRPGNFTYHIPVSSGTPLHLSLTLQMNSSSPVSVVLCSLRSKEEPCEEGSLPQSLHTHQDTQGTSHRWPITILSFREFTYHFRVALLGQANCSSEALAQPATDYHFHFYRLCD
# B3: TCF7L1, Q9HCS4 (protein)
# chain: MPQLGGGGGGGGGGSGGGGGSSAGAAGGGDDLGANDELIPFQDEGGEEQEPSSDSASAQRDLDEVKSSLVNESENQSSSSDSEAERRPQPVRDTFQKPRDYFAEVRRPQDSAFFKGPPYPGYPFLMIPDLSSPYLSNGPLSPGGARTYLQMKWPLLDVPSSATVKDTRSPSPAHLSNKVPVVQHPHHMHPLTPLITYSNDHFSPGSPPTHLSPEIDPKTGIPRPPHPSELSPYYPLSPGAVGQIPHPLGWLVPQQGQPMYSLPPGGFRHPYPALAMNASMSSLVSSRFSPHMVAPAHPGLPTSGIPHPAIVSPIVKQEPAPPSLSPAVSVKSPVTVKKEEEKKPHVKKPLNAFMLYMKEMRAKVVAECTLKESAAINQILGRKWHNLSREEQAKYYELARKERQLHSQLYPTWSARDNYGKKKKRKREKQLSQTQSQQQVQEAEGALASKSKKPCVQYLPPEKPCDSPASSHGSMLDSPATPSAALASPAAPAATHSEQAQPLSLTTKPETRAQLALHSAAFLSAKAAASSSGQMGSQPPLLSRPLPLGSMPTALLASPPSFPATLHAHQALPVLQAQPLSLVTKSAH
# B4: FER, P16591 (protein)
# chain: MGFGSDLKNSHEAVLKLQDWELRLLETVKKFMALRIKSDKEYASTLQNLCNQVDKESTVQMNYVSNVSKSWLLMIQQTEQLSRIMKTHAEDLNSGPLHRLTMMIKDKQQVKKSYIGVHQQIEAEMIKVTKTELEKLKCSYRQLIKEMNSAKEKYKEALAKGKETEKAKERYDKATMKLHMLHNQYVLALKGAQLHQNQYYDITLPLLLDSLQKMQEEMIKALKGIFDEYSQITSLVTEEIVNVHKEIQMSVEQIDPSTEYNNFIDVHRTTAAKEQEIEFDTSLLEENENLQANEIMWNNLTAESLQVMLKTLAEELMQTQQMLLNKEEAVLELEKRIEESSETCEKKSDIVLLLSQKQALEELKQSVQQLRCTEAKFSAQKELLEQKVQENDGKEPPPVVNYEEDARSVTSMERKERLSKFESIRHSIAGIIRSPKSALGSSALSDMISISEKPLAEQDWYHGAIPRIEAQELLKKQGDFLVRESHGKPGEYVLSVYSDGQRRHFIIQYVDNMYRFEGTGFSNIPQLIDHHYTTKQVITKKSGVVLLNPIPKDKKWILSHEDVILGELLGKGNFGEVYKGTLKDKTSVAVKTCKEDLPQELKIKFLQEAKILKQYDHPNIVKLIGVCTQRQPVYIIMELVSGGDFLTFLRRKKDELKLKQLVKFSLDAAAGMLYLESKNCIHRDLAARNCLVGENNVLKISDFGMSRQEDGGVYSSSGLKQIPIKWTAPEALNYGRYSSESDVWSFGILLWETFSLGVCPYPGMTNQQAREQVERGYRMSAPQHCPEDISKIMMKCWDYKPENRPKFSELQKELTIIKRKLT
# B5: ZBTB17, Q13105 (protein)
# chain: MDFPQHSQHVLEQLNQQRQLGLLCDCTFVVDGVHFKAHKAVLAACSEYFKMLFVDQKDVVHLDISNAAGLGQVLEFMYTAKLSLSPENVDDVLAVATFLQMQDIITACHALKSLAEPATSPGGNAEALATEGGDKRAKEEKVATSTLSRLEQAGRSTPIGPSRDLKEERGGQAQSAASGAEQTEKADAPREPPPVELKPDPTSGMAAAEAEAALSESSEQEMEVEPARKGEEEQKEQEEQEEEGAGPAEVKEEGSQLENGEAPEENENEESAGTDSGQELGSEARGLRSGTYGDRTESKAYGSVIHKCEDCGKEFTHTGNFKRHIRIHTGEKPFSCRECSKAFSDPAACKAHEKTHSPLKPYGCEECGKSYRLISLLNLHKKRHSGEARYRCEDCGKLFTTSGNLKRHQLVHSGEKPYQCDYCGRSFSDPTSKMRHLETHDTDKEHKCPHCDKKFNQVGNLKAHLKIHIADGPLKCRECGKQFTTSGNLKRHLRIHSGEKPYVCIHCQRQFADPGALQRHVRIHTGEKPCQCVMCGKAFTQASSLIAHVRQHTGEKPYVCERCGKRFVQSSQLANHIRHHDNIRPHKCSVCSKAFVNVGDLSKHIIIHTGEKPYLCDKCGRGFNRVDNLRSHVKTVHQGKAGIKILEPEEGSEVSVVTVDDMVTLATEALAATAVTQLTVVPVGAAVTADETEVLKAEISKAVKQVQEEDPNTHILYACDSCGDKFLDANSLAQHVRIHTAQALVMFQTDADFYQQYGPGGTWPAGQVLQAGELVFRPRDGAEGQPALAETSPTAPECPPPAE
# B6: SMAD4, Q13485 (protein)
# chain: MDNMSITNTPTSNDACLSIVHSLMCHRQGGESETFAKRAIESLVKKLKEKKDELDSLITAITTNGAHPSKCVTIQRTLDGRLQVAGRKGFPHVIYARLWRWPDLHKNELKHVKYCQYAFDLKCDSVCVNPYHYERVVSPGIDLSGLTLQSNAPSSMMVKDEYVHDFEGQPSLSTEGHSIQTIQHPPSNRASTETYSTPALLAPSESNATSTANFPNIPVASTSQPASILGGSHSEGLLQIASGPQPGQQQNGFTGQPATYHHNSTTTWTGSRTAPYTPNLPHHQNGHLQHHPPMPPHPGHYWPVHNELAFQPPISNHPAPEYWCSIAYFEMDVQVGETFKVPSSCPIVTVDGYVDPSGGDRFCLGQLSNVHRTEAIERARLHIGKGVQLECKGEGDVWVRCLSDHAVFVQSYYLDREAGRAPGDAVHKIYPSAYIKVFDLRQCHRQMQQQAATAQAAAAAQAAAVAGNIPGPGSVGGIAPAISLSAAAGIGVDDLRRLCILRMSFVKGWGPDYPRQSIKETPCWIEIHLHRALQLLDEVLHTMPIADPQPLD
# Target: nucleoprotein N of Crimean-Congo hemorrhagic fever virus
# Experiment: AlphaScreen luminescence signal relative to Venus negative control (fold); higher = stronger binding to CCHFV N
# Method: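 AlphaScreen binding of cell-free made, FLAG-GST-tagged human transcription factors and regulators (crude translation products) to biotinylated N protein; signal as fold of the FLAG-GST-Venus control. One pass.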
row,Binder,AlphaScreen luminescence signal
1,B1,1.95
2,B2,2.7
3,B3,1.63
4,B4,1.77
5,B5,1.35
6,B6,3.02
